{"source": "paper PMC12136788", "binders": {"B1": {"name": "chr1:54683890:54683891:+_ENSG00000116221_ENST00000360840|hu_hu|motif|central (ssRNA)", "RNA": "GGGAGUUCUACAGUCCGACGAUCGGGGUUUCAGGAUUCAGAGGGGUCCUCCGCUCACGCAGCACCAUGCAAAUAUAGAGCGGAAAACUUUCUGAAUGUCUCUGGCUUGAAACCAACUGGGCCAACAGGUUCCACAACCACUCUCAACAGAGGAUUGAGCAUCA"}, "B2": {"name": "chr7:44609470:44609471:-_ENSG00000136271_ENST00000433257|hu_hu|FALSE|FALSE (ssRNA)", "RNA": "GGGAGUUCUACAGUCCGACGAUCAGCUCCUCAAUCUUGCCUAAGUGGAACUGCUCCGUGGGAAGCACAAAGGUUAAGACUAUGCCUGGGUUGUUAGCGCGUGCUGUCCUGCCAGCUCGAUGGAUGUAGGCCUCAGGGGUUGGGCAACAGAGGAUUGAGCAUCA"}, "B3": {"name": "chr18:25636641:25636642:-_ENSMUSG00000024268_ENSMUST00000025117|mus_hu|FALSE|FALSE (ssRNA)", "RNA": "GGGAGUUCUACAGUCCGACGAUCCAUUUACCAAAGAUAAAUAUCGUGCUUUCAUUAAAUAGUUUUCCUUGUUUUUUUCUCUAUCAUUACAAUUAAAAGUCCUACAAAAUAUGCAAAUUUAUUUACAGAAAAACAGAGCCGGCACAACAGAGGAUUGAGCAUCA"}, "B4": {"name": "chr11:119967308:119967309:-_ENSMUSG00000061306_ENSMUST00000103018|mus_mus|FALSE|FALSE (ssRNA)", "RNA": "GGGAGUUCUACAGUCCGACGAUCAGGCUGUGAAGGGUCAUCUCCCAGUGUCUCCCCAGCGUGCUCAGCCUCCUCCUCCUGUCCUCGGAGUACAGCCACCCCAGGCUCUGGCUGCACGUCUGCAGGCUUAGGCUUGUCUUCCUCCAACAGAGGAUUGAGCAUCA"}, "B5": {"name": "chr4:107013644:107013645:+_ENSMUSG00000057375_ENSMUST00000075693|mus_mus|FALSE|FALSE (ssRNA)", "RNA": "GGGAGUUCUACAGUCCGACGAUCCACAUAAUGGUAUGUCUUCUCUCCCAGAUGGAUUAGGAAGUUAGAAAGGUUCCCACUAAUUGCUAUGGCAAAGACCAACGUGGCACAUAUCCAAAAGGGACCAUAGAGAUCUGGAUUGCUCAACAGAGGAUUGAGCAUCA"}, "B6": {"name": "chr10:114658717:114658718:-_ENSMUSG00000020130_ENSMUST00000020339|mus_hu|FALSE|FALSE (ssRNA)", "RNA": "GGGAGUUCUACAGUCCGACGAUCAAGAUUUUCAAAAGACUGUGAAAGACUCUUAUUCUGACAAUUCACAAGAAGUGUUCUUUUAUCCUGUGGAGAUUCACACAAUACCACAUAUUUUUCAAGAGAUUCAAUCAGUAGUUUGCUCAACAGAGGAUUGAGCAUCA"}, "B7": {"name": "chr18:48442549:48442550:+_ENSG00000082212_ENST00000321341|hu_mus|FALSE|FALSE (ssRNA)", "RNA": "GGGAGUUCUACAGUCCGACGAUCAAUUGAUCUAACAUGACCUCUGUCUGAGAUUGAAAUAAACAAUCCCUUAGGUCUCCUAAAGAUGUGCCCAUAUUGACAGCAGGCAAGACCAACUGUUGGCGUGUACACAAUCGGCAUCAGCAACAGAGGAUUGAGCAUCA"}, "B8": {"name": "chr17:65740002:65740003:+_ENSG00000130935_ENST00000581375|hu_hu|hu_hu_hu_mus_False|18_58 (ssRNA)", "RNA": "GGGAGUUCUACAGUCCGACGAUCAACAAAUCUUUCUUCCCUGGACGAACAGGAAGAUUCAUAUUAAAAAAAAUAUAUGUCUAUGAAGUUAGGUGUGGUGGCCACACCUUUACUCCCCACUUCAAUUGAGGUGGAUCUCUGAGUCAACAGAGGAUUGAGCAUCA"}, "B9": {"name": "chr2:202488911:202488912:-_ENSG00000155755_ENST00000286196|hu_mus|hu_hu_hu_mus_False|1_38 (ssRNA)", "RNA": "GGGAGUUCUACAGUCCGACGAUCAUUGAAACAUUUUUCAUAAUCUCCAGUAGCAUUUCAGCAUUAUGUAACAAAAGCUCAAUUGUAAAUACAUGUAUAUACAUCUUAUACACUUAAAAACACGAGUGGGGAGCGCACAAAUACCAACAGAGGAUUGAGCAUCA"}, "B10": {"name": "chr10:33190432:33190433:-_ENSG00000150093_ENST00000302278|hu_mus|hu_hu_hu_mus_True|48_88 (ssRNA)", "RNA": "GGGAGUUCUACAGUCCGACGAUCUACAUUUUCCAAACCUGCAUGUGAGUAAAACCAUGGCCACAGAGCCCCAAAACUACCCUACUGUGACUAUGGAGCUGCUGCUGUGAGCUUGGUGUUGCAAAAUCCGCCUGAGUAGGAUUCCAACAGAGGAUUGAGCAUCA"}, "B11": {"name": "184677316_184677436_2214_CDS_ENSG00000116406_ENST00000318130|human|control|control (ssRNA)", "RNA": "GGGAGUUCUACAGUCCGACGAUCCUGAGCUGGUCCAGCAGUCAAUACUACCCUGCCAAAAAAUGGGUGGGAAACAAUUUGUACAGCUCGUGGAGGCAGCUGCUGUUCUUUUUGUUGCUGACUUGACAAUUCAAUCAUCUCCUGCAACAGAGGAUUGAGCAUCA"}, "B12": {"name": "chr6:36760027:36760028:-_ENSMUSG00000029838_ENSMUST00000101534|mus_mus|FALSE|FALSE (ssRNA)", "RNA": "GGGAGUUCUACAGUCCGACGAUCUAUCGCUGGCUGAUGCUCCUGCCUGGGCGGCUGCGCUCUGCUCUCCCCCCUUCUGGAUGGAUGACUCAGUGCUUUCUUUCUUCCCCUCUCUCCACUUUGGGUUUUCUUGUGCUCUGGGGCCAACAGAGGAUUGAGCAUCA"}, "B13": {"name": "chr9:120864499:120864500:+_ENSMUSG00000006932_ENSMUST00000007130|mus_hu|FALSE|FALSE (ssRNA)", "RNA": "GGGAGUUCUACAGUCCGACGAUCAUAAUUAUUGCAAGUGAGGUUAGAAAGAAUUCCAGCUGCACAGGUGACCACAUUUAUAUCAUCUGAACCCAGAAGCUGAACAAGAGUCCCAAGGAGACCUUCCAUCCCUUCCUGUUUAGUCAACAGAGGAUUGAGCAUCA"}, "B14": {"name": "123199738_123201729_3909_CDS_ENSG00000136861_ENST00000349780|human|control|control (ssRNA)", "RNA": "GGGAGUUCUACAGUCCGACGAUCGCCAUCCUUAAUCUGCUGCCGUUGAAGGGAGAGCUCCCUGGCUUGGGACUGAACUAAUGAAUCGUAUCUGGGAGGUGAGAGAUCUCUGAACUUAUUCUGCAGAUUAUGGAUCUCACUGAACAACAGAGGAUUGAGCAUCA"}, "B15": {"name": "chr22:32879901:32879902:+_ENSG00000100225_ENST00000397426|hu_mus|hu_hu_hu_mus_False|18_78 (ssRNA)", "RNA": "GGGAGUUCUACAGUCCGACGAUCCUCUUCCAUACUCAUGGCAUCCUGAAUUGACUCAGCUUCAAAAUUUUGACUAGGCCCUUCCAUACUGUCAUCAGUCCAGGCAUCAAAUGGGGUUGCCUGUCCUUGGGAUGAAUCAGUCCCCAACAGAGGAUUGAGCAUCA"}, "B16": {"name": "chr7:116176368:116176369:+_ENSMUSG00000031028_ENSMUST00000033341|mus_mus|FALSE|FALSE (ssRNA)", "RNA": "GGGAGUUCUACAGUCCGACGAUCCAGACAGACACACACACACAGACACAGAGCACCUUGGAGCCAGAAGGACAGAAAAAGCUAGACUUGGAGAGGAGCUGGGGAAGCUAACAUCACCACUCUGCAGAAGAACUGGUUUGGAGCCAACAGAGGAUUGAGCAUCA"}, "B17": {"name": "chrX:41000244:41000245:+_ENSG00000124486_ENST00000378308|hu_hu|motif|central (ssRNA)", "RNA": "GGGAGUUCUACAGUCCGACGAUCUGCUUCUUUUUUCAGUUCUUCAUCAGUUAAGUUUUCUAAAAACUGUGGAACCAUUUCGGUUAUUGGAAGAAAGUACUUUUUCACUGUAUGAAGAGUGAGAAACUCAUAGCAUUGCCCAAACAACAGAGGAUUGAGCAUCA"}, "B18": {"name": "chr10:33190432:33190433:-_ENSG00000150093_ENST00000302278|hu_mus|hu_hu_hu_mus_True|1_38 (ssRNA)", "RNA": "GGGAGUUCUACAGUCCGACGAUCUACAUUUUCCAAACCUGCAUGUGAAUAAAACCCUGGCCACAGAGCCCCAAAACUACCCUACUGUGACUAAGAUAAUUGCUACUUGAGCUUGGUGUUGCAAAAUCCGCCUGAGUCAGUACUCAACAGAGGAUUGAGCAUCA"}, "B19": {"name": "chr14:66974463:66974464:+_ENSMUSG00000022044_ENSMUST00000074523|mus_hu|mus_mus_mus_hu_False|48_48 (ssRNA)", "RNA": "GGGAGUUCUACAGUCCGACGAUCUUGUAGGACGACUUAUUCAGGGGAUCGGCCAGGAAGCAGGAGCAGAACAAGGACACCAGCGGGAGUUCCUUCAUCUUCUCUUUGUAGGCAGCAAGGGUCAUGUUUCUGGGAUCUGGUGGCCAACAGAGGAUUGAGCAUCA"}, "B20": {"name": "chr17:24776569:24776570:-_ENSMUSG00000002504_ENSMUST00000002572|mus_mus|FALSE|FALSE (ssRNA)", "RNA": "GGGAGUUCUACAGUCCGACGAUCAGAGAGCCUAGGCUCUGCAUUCCAGAACCCAGCAUGUGGGAGGUAGCACAGGGGUAGCUAGGCAGAGAAGAGAGGCCUGGCCUAGGGACCAUCCCAUGUGAGGGAUGGGGCAGAGGGACACAACAGAGGAUUGAGCAUCA"}, "B21": {"name": "chr2:202488911:202488912:-_ENSG00000155755_ENST00000286196|hu_mus|hu_hu_hu_mus_False|18_98 (ssRNA)", "RNA": "GGGAGUUCUACAGUCCGACGAUCAUUGAAACAUUUUCAUAAUAUUGCAGUAGCAUUUCAGCAUUAUGUAACAAAAGCUCAAUUGUAAAUACAUGUAUCUUAUAAAAAUACACUUAAAUUUAAAAACGGGGAGCGCAGGCGCCACAACAGAGGAUUGAGCAUCA"}, "B22": {"name": "62233625_62233745_1228_CDS_ENSMUSG00000020074_ENSMUST00000020268|mouse|control|control (ssRNA)", "RNA": "GGGAGUUCUACAGUCCGACGAUCCUGCACUGUGUACCGUGGAACGACACGACGGACUCUCCGAGGGGAGCGCUCUCUUUCUCUCCGGGGUGACCUCUCCCGGGAACGUUUCCUCUGAGGUGAUCUUUCUCUAGAUCUGCGUCUCAACAGAGGAUUGAGCAUCA"}}, "note": "Some of the results follow."}
{"molecular_target": "T1, UNK ZnF1-3 (human, UniProt Q9C0B0 31-174)", "T1 sequence": "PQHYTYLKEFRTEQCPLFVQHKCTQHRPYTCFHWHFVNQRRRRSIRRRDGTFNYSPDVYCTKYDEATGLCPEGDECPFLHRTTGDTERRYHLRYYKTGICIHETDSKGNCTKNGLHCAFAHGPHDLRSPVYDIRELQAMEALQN", "assay": "nsRBNS (natural sequence RNA bind-n-seq); RBNS binding buffer (assumed for nsRBNS): 25 mM Tris pH 7.5, 150 mM KCl, 3 mM MgCl2, 0.01% Triton X-100, 500 ug/ml BSA, 20 U/ml SUPERase-In, 4 C; UNK is unkempt and MSI1 is Musashi-1; names of the RNAs are library labels; protein concentration not given here; high values mean tight binding", "units": {"binding signal": "enrichment R"}}
{"binder": "B1", "binding signal": 0.71}
{"binder": "B2", "binding signal": 1.65}
{"binder": "B3", "binding signal": 0.913}
{"binder": "B4", "binding signal": 0.851}
{"binder": "B5", "binding signal": 1.09}
{"binder": "B6", "binding signal": 0.617}
{"binder": "B7", "binding signal": 0.933}
{"binder": "B8", "binding signal": 0.888}
{"binder": "B9", "binding signal": 1.48}
{"binder": "B10", "binding signal": 0.83}
{"binder": "B11", "binding signal": 1.06}
{"binder": "B12", "binding signal": 0.637}
{"binder": "B13", "binding signal": 1.04}
{"binder": "B14", "binding signal": 1.23}
{"binder": "B15", "binding signal": 0.971}
{"binder": "B16", "binding signal": 2.69}
{"binder": "B17", "binding signal": 0.724}
{"binder": "B18", "binding signal": 0.874}
{"binder": "B19", "binding signal": 2.5}
{"binder": "B20", "binding signal": 1.07}
{"binder": "B21", "binding signal": 2.2}
{"binder": "B22", "binding signal": 0.51}
